Values joined by “and” are separate entries in the source; they are usually repeats but may differ in a detail not shown here. Equal entries are not always repeated. This list was built around the results that the source calls inconclusive (neither active nor inactive); the mix of calls is not that of the screen. Where the call is inconclusive, the potency comes from a doubtful curve fit. A structure can be active in one record and inactive in another. Active and inactive are the calls of the source. The call rests on the fitted dose curve; in most records, active means well fitted cell-killing curve with a large enough effect; inconclusive means small, poorly fitted or top-dose-only effect, or effect the other way; inactive means flat fitted curve, though single readings scatter.
What was measured:
Experiment in all cases: Primary qHTS to identify gynecologic anti-cancer compounds using libraries of approved drugs and bioactive compounds (AID 1345084); further: nearly all actives have a fitted effect of over 55% in size
Settings in all cases: Gynecologic cancer cell panel viability, ATPlite luminescence, 48 h; series mostly up to 57.5 µM
PA-1 = system: PA-1
How it was run: (§1)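 Luminescence from the ATPlite ATP-monitoring reagent indicates viable cell number; lower signal means cytotoxicity. Cells received compound 16 h after seeding and were exposed for 48 h across five concentrations.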

SKOV3 = system: SKOV3
How it was run: as §1

Tov112D = system: Tov112D
How it was run: as §1

Tov-21-G = system: Tov-21-G
How it was run: as §1
On the % scale 0 is the no-effect control and ±100 the full control effect; potency means the concentration at half of the fitted maximal effect; tags describe the fitted curve by direction and shape.

SMILES | Potency (PA-1) | Potency (SKOV3) | Potency (Tov112D) | Potency (Tov-21-G) | activity change, negative = cytotoxicity (PA-1) | activity change, negative = cytotoxicity (Tov112D)
C[C@@H]1CN(Cc2ccc(F)cc2)CCN1C(=O)COc1ccc(Cl)cc1NC(N)=O | inconclusive: 3.16 µM [cytotoxic, full curve, poor fit] | active: 3.16 µM | inconclusive: 12.6 µM [cytotoxic, partial curve, poor fit] | – | – | –
C[C@@]1(CO)[C@H](O)CC[C@@]2(C)[C@H]1CC[C@H]1C[C@@H]3C[C@@]12CC[C@]3(O)CO | inconclusive: 11.2 µM [cytotoxic, single point] | inconclusive: 6.31 µM [cytotoxic, partial curve, poor fit] | inconclusive: 10 µM [cytotoxic, partial curve] | inactive | – | –
CCC(OC(C)=O)C(CC(C)NC)(c1ccccc1)c1ccccc1 (centres undefined) | inconclusive: 100 µM [cytotoxic, single point] | inconclusive: 70.8 µM [cytotoxic, single point] | inconclusive: 100 µM [cytotoxic, single point] | – | – | –
CO[C@H]1C[C@H](O[C@H]2CC[C@@]3(C)C(=CCC4C3CC[C@]3(C)[C@@H](C5=CC(=O)OC5)CC[C@]43O)C2)O[C@@H](C)[C@@H]1O[C@@H]1O[C@H](CO[C@@H]2O[C@H](CO)[C@@H](O)[C@H](O)[C@H]2O)[C@@H](O)[C@H](O)[C@H]1O (some centres undefined) | – | inconclusive: 3.55 µM [rising, partial curve, poor fit] | – | – | inactive: 10.4% [at 11.6 µM] | inactive: -28.4% [at 11.6 µM]
CC1=CC(=O)[C@@H](O)[C@]2(C)C3[C@@H](O)[C@@H]4OC(=O)[C@@H]([C@H]4C)[C@]3(C)C(=O)[C@H](O)[C@@H]12 (some centres undefined) | inconclusive: 28.2 µM [cytotoxic, single point] | inactive | inconclusive: 28.2 µM [cytotoxic, partial curve, poor fit] | – | – | –
CC[C@H](O)[C@@H](C)[C@H]1O[C@@H]1C[C@H](C)/C=C/C=C(\C)[C@H]1OC(=O)C[C@H](O)CC[C@@](C)(O)[C@@H](OC(C)=O)/C=C/[C@@H]1C | inconclusive: 0.562 µM | inconclusive: 0.0891 µM | inconclusive: 0.0112 µM | inconclusive: 4.47 µM | – | –
Cc1sc2c(c1C)C(c1ccc(Cl)cc1)=NC(CC(=O)Nc1ccc(O)cc1)c1nnc(C)n1-2 (centres undefined) | active: 1.78 µM | active: 3.16 µM | inconclusive: 5.01 µM [cytotoxic, full curve, poor fit] | inconclusive: 4.47 µM [cytotoxic, partial curve] | – | –
C[C@@H]1O[C@@H](OC2CCC3(C=O)C(CCC4C3CCC3(C)C(C5=CC(=O)OC5)C(O)CC43O)C2)[C@H](O)[C@H](O)[C@H]1O[C@@H]1O[C@H](CO)[C@@H](O)[C@H](O)[C@H]1O (some centres undefined) | inconclusive: 10 µM [cytotoxic, single point] | active: 11.2 µM | active: 3.16 µM | – | – | –
COc1ccc2c(C(=O)c3ccc(Cl)cc3)c(C)n(CC(=O)O)c2c1 | inconclusive: 20 µM [cytotoxic, single point] | inconclusive: 39.8 µM [cytotoxic, single point] | inconclusive: 39.8 µM [cytotoxic, single point] | inconclusive: 39.8 µM [cytotoxic, single point] | – | –
C[C@]12CC[C@H](O)C[C@H]1CC[C@@H]1[C@@H]2[C@H](O)C[C@]2(C)[C@@H](c3ccc(=O)oc3)CC[C@]12O | active: 0.355 µM | inconclusive: 0.1 µM | inconclusive: 0.01 µM | – | – | –
CC(C)[C@]12O[C@H]1[C@@H]1O[C@]13[C@]1(O[C@H]1C[C@H]1C4=C(CC[C@@]13C)C(=O)OC4)[C@@H]2O | active: 0.1 µM | inconclusive: 1 µM | active: 0.1 µM | inconclusive: 0.398 µM | – | –
CNc1ccc2oc(C[C@H]3O[C@@]4(CC[C@H]3C)O[C@H](C(C)C(=O)c3ccc[nH]3)[C@H](C)C[C@H]4C)nc2c1C(=O)O (some centres undefined) | active: 4.47 µM | inconclusive: 31.6 µM [cytotoxic, partial curve, poor fit] | inconclusive: 10 µM [cytotoxic, partial curve] | active: 11.2 µM | – | –
CCCCCCCCC(=O)NCc1ccc(O)c(OC)c1 | inconclusive: 0.708 µM | inconclusive: 100 µM | inconclusive: 11.2 µM | – | – | –
COc1ccc(N(C(=O)Oc2c(C)cccc2C)c2ccnc(Nc3ccc(N4CCN(C)CC4)cc3)n2)c(OC)c1 | inconclusive: 0.126 µM | inconclusive: 3.98 µM | inconclusive: 10 µM | inconclusive: 1 µM | – | –
C[C@@H]1O[C@@H](O[C@H]2C[C@@H](O)[C@]3(CO)[C@H]4[C@H](O)C[C@]5(C)[C@@H](C6=CC(=O)OC6)CC[C@]5(O)[C@@H]4CC[C@]3(O)C2)[C@H](O)[C@H](O)[C@H]1O | active: 316 nM and active: 141 nM | active: 251 nM and active: 158 nM | active: 89.1 nM and active: 100 nM | active: 251 nM and active: 141 nM | – | –
CC(=O)O[C@H]1C[C@@H](C)O[C@H]2O[C@@H]3CC4CC[C@@H]5C(CC[C@]6(C)[C@@H](C7=CC(=O)OC7)CC[C@]56O)[C@@]4(C=O)C[C@H]3O[C@]21O (some centres undefined) | active: 0.126 µM | active: 0.112 µM | active: 0.1 µM | – | – | –
Cc1sc2c(c1C)C(c1ccc(Cl)cc1)=N[C@@H](CC(N)=O)c1nnc(C)n1-2 | inconclusive: 0.501 µM [cytotoxic, full curve, poor fit] | active: 0.891 µM | inconclusive: 0.891 µM [cytotoxic, full curve, poor fit] | inconclusive: 2.24 µM [cytotoxic, full curve] | – | –
CO[C@H]1[C@@H](O)[C@@H](C)O[C@@H](O[C@@H]2C=C3C(OC(C)=O)CC4(O)C(CC[C@]5(C)[C@@H](C6=CC(=O)OC6)CC[C@]45O)[C@@]3(C)CC2)[C@@H]1O (some centres undefined) | active: 0.316 µM | active: 0.282 µM | active: 0.1 µM | active: 0.282 µM | – | –
CO/C1=C\C(C)=C\[C@@H](C)[C@@H](O)[C@@H](C)C/C(C)=C/C=C/[C@H](OC)[C@@H]([C@@H](C)[C@@H](O)[C@H](C)[C@@]2(O)C[C@@H](O)[C@H](C)[C@@H](C(C)C)O2)OC1=O | active: 0.0891 µM | inconclusive: 0.0794 µM [cytotoxic, full curve, poor fit] | active: 0.1 µM | inconclusive: 0.0708 µM [cytotoxic, full curve, poor fit] | – | –
CCNC(=O)CC1N=C(c2ccc(Cl)cc2)c2cc(OC)ccc2-n2c(C)nnc21 (centres undefined) | inconclusive: 2.51 µM [cytotoxic, full curve, poor fit] | active: 15.8 µM | inconclusive: 10 µM [cytotoxic, partial curve, poor fit] | – | – | –
CC1=C[C@H]2O[C@@H]3C[C@H]4OC(=O)/C=C/C=C/C(=O)OCC/C(C)=C/C(=O)OC[C@@]2(CC1)[C@]4(C)[C@]31CO1 | active: 0.0708 µM | active: 0.0708 µM | inconclusive: 0.0355 µM | active: 0.0891 µM | – | –
CC(C)C(=O)O[C@H]1[C@@H]2[C@H](C)C(=O)O[C@@H]2C[C@@H](C)[C@@H]2C=CC(=O)[C@]21C | inconclusive: 10 µM [cytotoxic, partial curve, poor fit] | inconclusive: 14.1 µM [cytotoxic, single point] | inconclusive: 12.6 µM [cytotoxic, single point] | active: 10 µM | – | –
COc1ccc2c3c1O[C@H]1[C@@H](O)C=C[C@H]4[C@@H](C2)N(C)CC[C@@]341 | inconclusive: 63.1 µM [cytotoxic, single point] | inconclusive: 89.1 µM [cytotoxic, single point] | inconclusive: 70.8 µM [cytotoxic, single point] | inconclusive: 44.7 µM [cytotoxic, single point] | – | –
C[C@H](N)[C@H](O)c1ccc(O)c(O)c1 | inconclusive: 39.8 µM [cytotoxic, partial curve, poor fit] | active: 25.1 µM | inconclusive: 39.8 µM [cytotoxic, partial curve, poor fit] | inconclusive: 28.2 µM [cytotoxic, partial curve, poor fit] | – | –
CO[C@H]1[C@H](O)[C@H](O[C@H]2CC[C@]3(C=O)C4CC[C@]5(C)[C@H](C6=CC(=O)OC6)CC[C@]5(O)C4CC[C@@H]3C2)O[C@@H](C)[C@@H]1O (some centres undefined) | inconclusive: 0.0891 µM [cytotoxic, full curve, poor fit] | inconclusive: 0.0891 µM [cytotoxic, full curve, poor fit] | inconclusive: 0.0028 µM | active: 0.0316 µM | – | –
CC1=CC2OC3CC(O)[C@](C)([C@@]2(C)C(O)C1=O)[C@]31CO1 (some centres undefined) | active: 3.16 µM | inconclusive: 2.82 µM [cytotoxic, partial curve, poor fit] | inconclusive: 12.6 µM [cytotoxic, partial curve] | inconclusive: 14.1 µM [cytotoxic, partial curve] | – | –
C[C@]12CC[C@H](O[C@@H]3O[C@H](CO)[C@@H](O)[C@H](O)[C@H]3O)CC1=CC[C@@H]1C2CC[C@]2(C)[C@@H](C3=CC(=O)OC3)CC[C@]12O (some centres undefined) | inconclusive: 11.2 µM [cytotoxic, single point] | inconclusive: 14.1 µM [cytotoxic, partial curve, poor fit] | active: 3.16 µM | active: 6.31 µM | – | –

From PubChem BioAssay (NCATS)
